Results are given in words; binding and its absence hold for the method and conditions named. Some results given as binding are weak or reduced against the parent protein; the word gives no strength.

The chains behind the UniProt entries cited, without tags or fusion partners.
UniProt P15873: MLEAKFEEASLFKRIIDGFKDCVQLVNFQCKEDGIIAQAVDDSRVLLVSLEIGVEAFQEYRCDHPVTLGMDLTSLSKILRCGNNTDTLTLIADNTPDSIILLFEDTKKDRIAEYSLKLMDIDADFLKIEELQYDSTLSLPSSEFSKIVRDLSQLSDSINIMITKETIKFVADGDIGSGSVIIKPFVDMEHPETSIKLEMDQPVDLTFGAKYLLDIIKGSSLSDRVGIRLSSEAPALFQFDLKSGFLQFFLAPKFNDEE

The target in assay [1] is T1, Elp3-TAP (S. cerevisiae) (UniProt Q02908).
T1 sequence: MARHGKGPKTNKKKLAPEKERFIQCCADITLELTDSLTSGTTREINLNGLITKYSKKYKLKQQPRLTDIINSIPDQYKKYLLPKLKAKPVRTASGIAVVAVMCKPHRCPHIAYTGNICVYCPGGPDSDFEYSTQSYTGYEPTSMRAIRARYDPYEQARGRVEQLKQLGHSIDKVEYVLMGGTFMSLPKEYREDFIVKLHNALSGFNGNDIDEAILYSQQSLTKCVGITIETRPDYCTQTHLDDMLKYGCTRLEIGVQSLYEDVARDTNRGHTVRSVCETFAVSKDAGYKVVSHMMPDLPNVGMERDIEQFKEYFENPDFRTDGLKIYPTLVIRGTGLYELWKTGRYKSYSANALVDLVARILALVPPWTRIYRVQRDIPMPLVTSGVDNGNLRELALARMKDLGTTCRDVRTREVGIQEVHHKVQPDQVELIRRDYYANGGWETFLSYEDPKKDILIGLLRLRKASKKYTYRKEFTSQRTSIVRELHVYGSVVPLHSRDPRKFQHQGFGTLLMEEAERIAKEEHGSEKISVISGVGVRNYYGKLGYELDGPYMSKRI
Briefly: tandem affinity purification; Elp3-TAP, Elp5-TAP or Cac2-TAP purified from equal amounts of yeast cells (wild type; Elp3-TAP also from cac1Δ), co-purified proteins detected by Ponceau S staining and Western blot with antibodies against CBP and PCNA.

The target of assay [2] is T2, Elp5-TAP (S. cerevisiae) (UniProt P38874).
T2 sequence: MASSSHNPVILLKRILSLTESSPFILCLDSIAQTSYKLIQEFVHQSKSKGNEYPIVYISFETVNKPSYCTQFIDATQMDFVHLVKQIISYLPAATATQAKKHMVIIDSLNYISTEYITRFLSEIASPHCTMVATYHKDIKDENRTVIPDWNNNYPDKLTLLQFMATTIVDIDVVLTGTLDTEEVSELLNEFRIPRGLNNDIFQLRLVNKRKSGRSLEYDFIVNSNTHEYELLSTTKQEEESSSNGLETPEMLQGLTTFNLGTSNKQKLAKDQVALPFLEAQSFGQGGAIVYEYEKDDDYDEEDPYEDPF
The assay is described as above.

Take “proliferating cell nuclear antigen (PCNA), endogenous in yeast (from UniProt P15873 1-258)”: the binding entry in assay [1] and in assay [2] was “binds” throughout.
